Source: the supplement of paper PMC4967469
By IC50 is meant the dose at which the fit gives 50% viability; a limit (>, <) means that the fit lies beyond the doses tested. The AUC spans the tested range (256-fold, ending at the top dose) of the same fit: 1 means no effect, lower means more sensitive. For some assays here: Any top dose called inferred is not printed in the source and was worked back from the curve model. For some assays here: Drugs with an entry number were screened twice under separate entries, and the two screens often disagree.

Tests used:
Assay in all cases: Viability of human cancer cell lines after 72 h of drug (GDSC screen)
(5Z)-7-Oxozeaenol = compound: COc1cc(O)c2c(c1)/C=C/C[C@H](O)[C@H](O)C(=O)/C=C\C[C@H](C)OC2=O [(5Z)-7-Oxozeaenol]; conditions: top dose 10 µM; top dose inferred
Method: (§1)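 Human cancer cell lines in 384-well plates, medium with 10% serum, drug for 72 h over a 256-fold dose range (nine 2-fold or five 4-fold steps up to the top dose). Adherent lines were fixed and stained with the nucleic acid dye Syto60, suspension lines read with resazurin; signal relative to control wells, capped at 0 and 100%. One two-parameter sigmoid per drug and line, fitted in a mixed model over all curves with the slope shared within a line.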

Thapsigargin = compound: C/C=C(/C)C(=O)O[C@H]1C(C)=C2[C@H]([C@@H]1OC(=O)CCCCCCC)[C@@](C)(OC(C)=O)C[C@H](OC(=O)CCC)[C@@]1(O)[C@H]2OC(=O)[C@@]1(C)O [Thapsigargin]; conditions: top dose 0.512 µM; top dose inferred
Method: as §1

ABT-888 = compound: C[C@]1(c2nc3c(C(N)=O)cccc3[nH]2)CCCN1 [ABT-888]; conditions: top dose 5 µM; top dose inferred
Method: as §1

MPS-1-IN-1 = compound: COc1cc(N2CCC(O)CC2)ccc1Nc1cc(Nc2ccccc2S(=O)(=O)C(C)C)c2cc[nH]c2n1 [MPS-1-IN-1]; conditions: top dose 20 µM; top dose inferred
Method: as §1

CHIR-99021 = compound: Cc1cnc(-c2cnc(NCCNc3ccc(C#N)cn3)nc2-c2ccc(Cl)cc2Cl)[nH]1 [CHIR-99021]
Method: as §1

KU-55933 = compound: O=c1cc(-c2cccc3c2Sc2ccccc2S3)oc(N2CCOCC2)c1 [KU-55933]; conditions: top dose 10 µM
Method: as §1

GSK269962A = compound: CCn1c(-c2nonc2N)nc2cnc(Oc3cccc(NC(=O)c4ccc(OCCN5CCOCC5)cc4)c3)cc21 [GSK269962A]; conditions: top dose 5 µM; screen: GDSC drug entry 1192; top dose inferred
Method: as §1

Cytarabine = compound: Nc1ccn([C@@H]2O[C@H](CO)[C@@H](O)[C@@H]2O)c(=O)n1 [Cytarabine]; conditions: top dose 2 µM
Method: as §1

CP466722 = compound: COc1cc2ncnc(-n3nc(-c4ccccn4)nc3N)c2cc1OC [CP466722]; conditions: top dose 16 µM; top dose inferred
Method: as §1

Zibotentan = compound: COc1nc(C)cnc1NS(=O)(=O)c1cccnc1-c1ccc(-c2nnco2)cc1 [Zibotentan]; conditions: top dose 20 µM; top dose inferred
Method: as §1

ABT-869 = compound: Cc1ccc(F)c(NC(=O)Nc2ccc(-c3cccc4[nH]nc(N)c34)cc2)c1 [ABT-869]; conditions: top dose 1.024 µM; top dose inferred
Method: as §1

QL-X-138 = compound: C=CC(=O)Nc1cc(-n2c(=O)ccc3cnc4ccc(-c5cn[nH]c5)cc4c32)ccc1C [QL-X-138]; conditions: top dose 10.24 µM; top dose inferred
Method: as §1

[1] = top dose 2.56 µM, screen: GDSC drug entry 154
[2] = top dose 10 µM, screen: GDSC drug entry 1241, top dose inferred

Row | Cell Line | AUC ((5Z)-7-Oxozeaenol) | IC50 ((5Z)-7-Oxozeaenol) [µM] | AUC (Thapsigargin) | IC50 (Thapsigargin) [µM] | AUC (ABT-888) | IC50 (ABT-888) [µM] | AUC (MPS-1-IN-1) | IC50 (MPS-1-IN-1) [µM] | AUC (CHIR-99021; [1]) | IC50 (CHIR-99021; [1]) [µM] | AUC (CHIR-99021; [2]) | IC50 (CHIR-99021; [2]) [µM] | AUC (KU-55933) | IC50 (KU-55933) [µM] | AUC (GSK269962A) | IC50 (GSK269962A) [µM] | AUC (Cytarabine) | IC50 (Cytarabine) [µM] | AUC (CP466722) | IC50 (CP466722) [µM] | AUC (Zibotentan) | IC50 (Zibotentan) [µM] | AUC (ABT-869) | IC50 (ABT-869) [µM] | AUC (QL-X-138) | IC50 (QL-X-138) [µM]
1 | OE33 (oesophagus, adherent) | 0.706 | 2.68 | 0.386 | 0.0146 | 0.974 | > 5 | 0.889 | > 20 | 0.976 | > 2.56 | 0.9 | > 10 | 0.959 | > 10 | 0.957 | > 5 | 0.777 | 0.964 | 0.925 | > 16 | 0.978 | > 20 | 0.969 | > 1.02 | 0.907 | > 10.2
2 | OSC-20 (head and neck, adherent) | 0.703 | 2.62 | 0.34 | 0.0105 | 0.955 | > 5 | 0.919 | > 20 | 0.982 | > 2.56 | 0.98 | > 10 | 0.918 | > 10 | 0.942 | > 5 | 0.826 | 1.53 | 0.827 | 12.3 | 0.981 | > 20 | 0.976 | > 1.02 | 0.747 | 3.82
3 | OV-90 (ovary, adherent) | 0.875 | > 10 | 0.205 | 0.00322 | 0.962 | > 5 | 0.921 | > 20 | 0.98 | > 2.56 | 0.979 | > 10 | 0.971 | > 10 | 0.926 | > 5 | 0.85 | > 2 | 0.798 | 10.2 | 0.981 | > 20 | 0.977 | > 1.02 | 0.84 | 10.2
4 | OVISE (ovary, adherent) | 0.627 | 1.58 | 0.608 | 0.0701 | 0.951 | > 5 | 0.958 | > 20 | 0.971 | > 2.56 | 0.897 | > 10 | 0.895 | > 10 | 0.961 | > 5 | 0.891 | > 2 | 0.828 | 14.5 | 0.979 | > 20 | 0.976 | > 1.02 | 0.743 | 4.1
5 | OVKATE (ovary, adherent) | 0.946 | > 10 | 0.788 | 0.42 | 0.978 | > 5 | 0.867 | > 20 | 0.979 | > 2.56 | 0.862 | > 10 | 0.975 | > 10 | 0.977 | > 5 | 0.822 | > 2 | 0.862 | > 16 | 0.926 | > 20 | 0.979 | > 1.02 | 0.849 | > 10.2
6 | OVMIU (ovary, adherent) | 0.665 | 2.02 | 0.377 | 0.0135 | 0.981 | > 5 | 0.886 | > 20 | 0.953 | > 2.56 | 0.774 | 4.91 | 0.972 | > 10 | 0.922 | > 5 | 0.664 | 0.402 | 0.771 | 7.64 | 0.968 | > 20 | 0.976 | > 1.02 | 0.696 | 2.64
7 | OVTOKO (ovary, adherent) | 0.659 | 1.96 | 0.461 | 0.0243 | 0.962 | > 5 | 0.939 | > 20 | 0.887 | > 2.56 | 0.911 | > 10 | 0.843 | > 10 | 0.714 | 1.51 | 0.68 | 0.458 | 0.805 | 10.9 | 0.976 | > 20 | 0.976 | > 1.02 | 0.818 | 7.88
8 | PA-TU-8902 (pancreas, adherent) | 0.447 | 0.437 | 0.402 | 0.0164 | 0.983 | > 5 | 0.791 | 10.7 | 0.983 | > 2.56 | 0.928 | > 10 | 0.951 | > 10 | 0.95 | > 5 | 0.774 | 0.924 | 0.838 | 13.6 | 0.979 | > 20 | 0.982 | > 1.02 | 0.688 | 2.37
9 | PANC-02-03 (pancreas, adherent) | 0.583 | 1.1 | 0.643 | 0.0863 | 0.971 | > 5 | 0.803 | 12.4 | 0.979 | > 2.56 | 0.967 | > 10 | 0.943 | > 10 | 0.932 | > 5 | 0.79 | 1.1 | 0.918 | > 16 | 0.97 | > 20 | 0.973 | > 1.02 | 0.875 | > 10.2
10 | PANC-03-27 (pancreas, adherent) | 0.642 | 1.5 | 0.126 | 0.00231 | 0.978 | > 5 | 0.869 | 16.5 | 0.977 | > 2.56 | 0.912 | > 10 | 0.964 | > 10 | 0.987 | > 5 | 0.797 | 0.877 | 0.803 | 7.36 | 0.987 | > 20 | 0.956 | > 1.02 | 0.785 | 4.09
